Out of some 310,000 compounds screened, about 2,200 (0.71%) showed an effect of 50% or more. Effects have a minus sign here. This is one part of the list.
Molecular target: human ether-à-go-go-related gene (hERG) potassium channel (human, UniProt Q12809)
Experiment: primary screen, population patch clamp on CHO cells stably expressing hERG

human ether-à-go-go-related gene (hERG) potassium channel, sequence (Q12809 whole entry, looked up): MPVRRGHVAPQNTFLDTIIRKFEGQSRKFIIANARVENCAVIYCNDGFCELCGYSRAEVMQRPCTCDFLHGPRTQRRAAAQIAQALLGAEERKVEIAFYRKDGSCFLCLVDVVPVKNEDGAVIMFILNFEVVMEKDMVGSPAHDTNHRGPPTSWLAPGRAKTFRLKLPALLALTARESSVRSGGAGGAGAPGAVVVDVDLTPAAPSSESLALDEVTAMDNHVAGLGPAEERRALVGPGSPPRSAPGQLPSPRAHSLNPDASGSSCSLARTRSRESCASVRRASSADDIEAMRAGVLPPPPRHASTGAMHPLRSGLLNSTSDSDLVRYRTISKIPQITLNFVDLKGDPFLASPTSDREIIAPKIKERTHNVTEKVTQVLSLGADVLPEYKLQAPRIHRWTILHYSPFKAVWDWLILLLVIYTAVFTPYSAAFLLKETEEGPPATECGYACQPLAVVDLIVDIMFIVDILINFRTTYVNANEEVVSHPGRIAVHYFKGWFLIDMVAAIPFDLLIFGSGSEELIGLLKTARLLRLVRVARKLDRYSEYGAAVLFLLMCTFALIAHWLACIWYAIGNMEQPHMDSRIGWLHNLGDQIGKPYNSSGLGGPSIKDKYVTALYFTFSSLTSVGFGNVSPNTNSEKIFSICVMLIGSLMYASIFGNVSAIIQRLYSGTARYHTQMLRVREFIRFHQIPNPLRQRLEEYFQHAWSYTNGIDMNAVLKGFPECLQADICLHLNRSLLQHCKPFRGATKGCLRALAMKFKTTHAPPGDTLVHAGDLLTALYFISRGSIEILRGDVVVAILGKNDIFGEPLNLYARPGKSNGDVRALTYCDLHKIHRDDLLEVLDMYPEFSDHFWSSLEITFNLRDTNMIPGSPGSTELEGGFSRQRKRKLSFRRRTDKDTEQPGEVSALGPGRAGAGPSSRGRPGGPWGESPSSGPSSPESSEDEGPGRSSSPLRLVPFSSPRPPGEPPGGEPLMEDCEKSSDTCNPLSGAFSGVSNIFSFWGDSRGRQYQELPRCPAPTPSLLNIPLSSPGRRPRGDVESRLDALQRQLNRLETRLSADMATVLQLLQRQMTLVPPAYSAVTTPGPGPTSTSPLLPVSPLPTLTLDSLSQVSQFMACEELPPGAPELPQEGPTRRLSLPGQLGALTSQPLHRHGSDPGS

| Compound | hERG current change (%, negative = inhibition) at 1uM [%] |
| --- | --- |
| CSc1nc(Cl)cc(Nc2ccc(O)cc2)n1 | -3.88 |
| CC1Cc2ccccc2N1C(=O)c1ccc2nccnc2c1 (centres unmarked) | 3.72 |
| COc1ccc(CCNC(=S)Nc2ccc(C)cc2C)cc1 | 16.1 |
| O=C1C2ON(c3ccc(Br)cc3)C(c3cccnc3)C2C(=O)N1C1CCCCC1 (centres unmarked) | -6.05 |
| CCOc1cc(N2CCOCC2)c(OCC)cc1NC(=O)COC(=O)c1ccccc1C | -16.2 |
| CCN(C(=O)CSc1nnc(-c2ccc(F)cc2)c2ccccc12)C1CCS(=O)(=O)C1 (centres unmarked) | -1.41 |
| CC(Sc1nnc(-c2ccncc2)n1-c1ccc(F)cc1)C(=O)NC1CC1 (centres unmarked) | 16.9 |
| O=C(c1ccsc1)N1CCCC(N2CCN(c3ccccc3F)CC2)C1 (centres unmarked) | 6.45 |
| CC12CCC(=O)N1C(C(=O)Nc1nc3ccccc3s1)CS2 (centres unmarked) | 15.4 |
| Cc1ccc(NC(=O)CSc2nc(C)c(Cc3ccccc3)c(=O)[nH]2)cc1C | 11.4 |
| CC1CCc2nc(NC(=O)C3CC3)sc2C1 (centres unmarked) | 10.6 |
| CC1(C)CC2CC(C)(CN2C(=O)c2cc(-c3ccccc3)on2)C1 (centres unmarked) | 6.81 |
| COc1ccc(/C=C(\C#N)C(=O)c2cccn2C)cc1 | 13.8 |
| Cc1nc(NCCO)c2nnn(Cc3ccccc3F)c2n1 | 12.3 |
| Cc1cccc(N(CC(=O)NC2CCCCC2)C(=O)c2ccc(C)s2)c1 | 9.81 |
| O=c1nc(-c2ccccc2)n(-c2ccccc2)c2ncccc12 | 10.8 |
| COc1ccc(NC(=O)C2CCN(C(=O)c3ccco3)CC2)c(OC)c1 | 17.1 |
| CC(CN1CCCCC1)OC(=O)c1ccc2c(c1)OCO2.Cl (centres unmarked) | -12.4 |
| COc1cccc(Oc2nc3ncn(Cc4ccccc4)c3c(=O)n2C)c1 | 8.17 |
| COc1ccc(CCNS(=O)(=O)c2cc(/C=C/C(=O)O)ccc2C)cc1OC | 7.76 |
| CCCCn1nc(C(=O)NCC(c2cccs2)N2CCOCC2)c2ccccc2c1=O (centres unmarked) | 5.01 |
| CSC[C@H](NC(=O)COc1cc2c(c3oc(=O)c(C)c(C)c13)CCC(C)(C)O2)C(=O)O | 11.2 |

| Compound | hERG current change (%, negative = inhibition) at 1uM [%] |
| --- | --- |
| COc1ccc(NC(=O)C2CCCN(c3cc(C)nc4ncnn34)C2)cc1 (centres unmarked) | 4.86 |
| CCN(CC)C(=O)C[n+]1ccc(C(N)=O)cc1.[Cl-] | 11.2 |
| CC(C)c1nnc(NC(=O)Cc2cccs2)s1 | 10.4 |
| CCOC(=O)[C@H]1[C@H]2COc3ccc(Cl)cc3[C@@H]2N2C(=O)CN(Cc3ccco3)C(=O)[C@@]12C | 12.8 |
| Cc1cc(C)cc(NC(=O)Cn2cc(C=O)c3ccccc32)c1 | 14.5 |
| CC1CCCCN1C(=O)Cc1ccc(F)cc1 (centres unmarked) | 3.52 |
| CC(=O)NC12CC3CC(C1)CC(C(=O)OCC(=O)Nc1ncc(Cl)c(C)c1Cl)(C3)C2 | 17.6 |
| OCCCNCc1ccc(N(c2ccccc2)c2ccccc2)cc1 | 7.75 |
| CCN1C(=O)c2ccccc2S(=O)c2ccc(C(=O)NCc3ccc(OC)cc3)cc21 (centres unmarked) | 5.88 |
| COc1ccc(NC(=O)CN2CCC(NC(=O)C3CCCCC3)CC2)c([N+](=O)[O-])c1 | 23.5 |
| COc1ccc(-c2cn3cccnc3n2)cc1NS(=O)(=O)c1ccccc1 | 20.5 |
| Cc1noc(/C=C/N(C)C)c1S(=O)(=O)N1CCC(C(=O)NC(C)(C)C)CC1 | 17.8 |
| CCOc1cc2c(cc1OC)C(NC(=O)C(F)(F)F)CC2=O (centres unmarked) | -1.52 |
| Cc1ccc(S(=O)(=O)N2CCC(C(=O)N3CCC3)CC2)cc1 | 11.3 |
| N#C/C(=C/c1cn(-c2ccccc2)nc1-c1cccc(OCc2ccc(F)cc2)c1)C(=O)NCCCn1ccnc1 | 10.3 |
| Cc1cc(SCC(=O)c2cccs2)n2nc(C)c(-c3ccccc3)c2n1 | -3.64 |
| Cn1c(O)c(C=NC2CCCCC2)c(=O)[nH]c1=S | -3.07 |
| COc1c(C)cc(Br)cc1C(=O)Nc1ccc(Cc2ccncc2)cc1 | 6.64 |
| CN(c1ccc(C(=O)Nc2ccc3c(c2)n(C)c(=O)n3C)cc1)S(C)(=O)=O | 14.2 |
| CCOC(=O)c1ccc(NC(=O)C(=O)NCc2ccco2)cc1 | 16.3 |
| CCOc1ccc(/C=N\NC(=O)CC(=O)NCCc2ccccc2)cc1 | 14.3 |
| NC(=O)COC(=O)CCCc1nc2ccccc2s1 | 4.75 |

| Compound | hERG current change (%, negative = inhibition) at 1uM [%] |
| --- | --- |
| O=C(CCC1CCCN(C(=O)COc2ccccc2)C1)N1CCN(c2ccccn2)CC1 (centres unmarked) | 0.893 |
| COC/C=C/C1=CC2=CC(=O)C(C)(OC(=O)c3cnc4ccccc4n3)C(=O)C2=CN1C1CCCC1 (centres unmarked) | 7.78 |
| O=c1c(O)c(-c2ccc(O)cc2)oc2cc(O)cc(O)c12 | 11.3 |
| O=C1NC(=O)C(=Cc2ccc(SC3CCCCC3)o2)C(=O)N1 | 11.7 |
| CCCCn1c(=O)c(C(=O)Nc2nnc(C(C)C)s2)c(O)c2ccccc21 | 5.61 |
| CCN(CC)S(=O)(=O)c1cccc(-c2nnc(C(=O)c3ccc(C(F)(F)F)cc3)o2)c1 | 10 |
| O=[N+]([O-])c1ccc(Cl)c(S(=O)(=O)/N=C(/c2ccccc2)N2CCOCC2)c1 | 17.4 |
| Cc1ccc(NC(=O)CSc2nnc(C)c(=O)[nH]2)cc1C | 5.34 |
| CCOc1cc(C2C(C(=O)c3ccc(C)o3)=C(O)C(=O)N2CCc2ccccc2)ccc1O (centres unmarked) | 12.3 |
| Cc1cc(=O)oc2cc(NC(=O)c3cc([N+](=O)[O-])ccc3N3CCOCC3)ccc12 | 11.5 |
| COc1ccc(C(OCC(O)CNCCc2ccccc2)c2ccc(OC)cc2)cc1.O=C(O)C(=O)O (centres unmarked) | -7.18 |
| Cc1ccccc1Cn1nc(C)c(NC(=O)c2sc3ccccc3c2Cl)c1C | 6.52 |
| COC(=O)Cc1ccc(NC(=S)Nc2cccc(C)n2)cc1 | 14.7 |
| O=C(NC(c1cccnc1)C(F)(F)F)c1cc(COc2ccc3c(c2)CCCC3)on1 (centres unmarked) | 9.95 |
| COc1cccc(/C=N/NC(=S)NCCc2ccccc2)c1 | 13.9 |
| O=C(Nc1ccc(OCC(F)(F)C(F)F)c(C(F)(F)F)c1)c1ccccc1 | 9.25 |
| Cc1ccc(-c2noc(CCCN3C(=O)c4ccccc4C3=O)n2)cc1 | 5.8 |
| O=C(/C=C/c1ccc(S(=O)(=O)NCc2ccco2)cc1)NCc1ccccc1Cl | 3.3 |
| CCCCn1c(N)c(N(CC(C)C)C(=O)CSc2ccc([N+](=O)[O-])cc2)c(=O)[nH]c1=O | -4.44 |
| Cc1ccc(N2CC(C(=O)NCCC3=CCCCC3)CC2=O)cc1 (centres unmarked) | 1.88 |
| CCC1C(=O)N=C(SCC(=O)Nc2cccc3ccccc23)NC1=O (centres unmarked) | -6.66 |
| Cc1nc(Oc2ccc(S(=O)(=O)N3CCOCC3)cc2Cl)c2c3c(sc2n1)CCCC3 | 8.8 |

| Compound | hERG current change (%, negative = inhibition) at 1uM [%] |
| --- | --- |
| CC(=O)Nc1ccc(C(=O)COC(=O)c2nc3nc(C)cc(C)n3n2)cc1 | 5.04 |
| COc1ccc(CCNC(=O)CCC(=O)N2CCOc3ccc(C)cc32)cc1OC | 13.9 |
| COc1ccc(CCNC(=O)Cc2cc(OCc3ccccc3)c(OC)cc2[N+](=O)[O-])cc1OC | 0.64 |
| COc1cccc(NS(=O)(=O)c2ccc3[nH]cc(C(=O)NCCC(C)C)c(=O)c3c2)c1 | 5.44 |
| CCOc1ccc2nc(C)cc(Nc3ccc(N4CCOCC4)cc3)c2c1.Cl | -60.6 |
| Cn1c(=O)[nH]c(=O)c2c1nc(N1CCCCC1)n2CC(O)CN1CCCCC1 (centres unmarked) | 8.07 |
| O=C(Nc1nnc(Cc2ccccc2)s1)c1cnccn1 | 12.6 |
| CC(C)CNC(=O)CSc1ccc(S(=O)(=O)N2CCN(C)CC2)cn1 | 10.7 |
| CCNc1nc(N)c(C(=C(C#N)C#N)c2ccccc2)s1 | 12.1 |
| C=CCN(CC=C)C(=O)COC(=O)c1ccc(Sc2ncn[nH]2)c([N+](=O)[O-])c1 | 10.1 |
| CC1CCN(c2c(NCc3ccc(C(=O)NCc4ccco4)cc3)c(=O)c2=O)CC1 | 6.87 |
| COc1ccc(CC(=O)Nc2ccc(-c3nnc(-c4ccccc4)o3)cc2)cc1OC | -1.29 |
| COc1ccc2[nH]c(O)c(N=NC(=N)N)c2c1 | 11.9 |
| O=C(Cn1c2ccccc2c2nc3n(c(=O)c21)CCCS3)Nc1ccccc1 | 6.47 |
| COc1ccc(OCc2cc(C(=O)NCc3cccc(C)n3)no2)c(Cl)c1 | 6.97 |
| CCOc1ccc(N(CC(=O)NC2CC2)S(=O)(=O)c2ccc(C)cc2)cc1 | 19.9 |
| CCCCOc1ccc(OC(=O)c2cccnc2)cc1 | 10.5 |
| CCN(CC(=O)Nc1cccc(OC)c1)C(=O)c1ccncc1 | 15.4 |
| COc1cc(C(=O)OCC(=O)NC2CCCCCC2)ccc1OCC(C)C | 18.2 |
| CCN(C(=O)c1cc2cccc(OC)c2oc1=O)C1CCCCC1 | 7.51 |
